Reference: PubChem BioAssay AID488969 (Vanderbilt High Throughput Screening Facility, 2010)
The full ranking holds about 110,000 compounds; the median of “z-score” is about -0.1, and the highest 2% start at about 2. The list shows a part of the results.

Target: Metabotropic glutamate receptor 8 (Rattus norvegicus) (UniProt P70579)
Test: rat mGluR8 modulators via GIRK flux, primary screen, cell-based, thallium flux, HTS (AID 488969)
Conditions: HEK293 rat mGluR8, GIRK (G protein-gated inwardly rectifying potassium channel) thallium flux, FluoZin2; at 10 µM; stronger effect = higher value; submaximal glutamate (EC20) added with thallium

Sequence of UniProt P70579 (P70579 whole entry, looked up): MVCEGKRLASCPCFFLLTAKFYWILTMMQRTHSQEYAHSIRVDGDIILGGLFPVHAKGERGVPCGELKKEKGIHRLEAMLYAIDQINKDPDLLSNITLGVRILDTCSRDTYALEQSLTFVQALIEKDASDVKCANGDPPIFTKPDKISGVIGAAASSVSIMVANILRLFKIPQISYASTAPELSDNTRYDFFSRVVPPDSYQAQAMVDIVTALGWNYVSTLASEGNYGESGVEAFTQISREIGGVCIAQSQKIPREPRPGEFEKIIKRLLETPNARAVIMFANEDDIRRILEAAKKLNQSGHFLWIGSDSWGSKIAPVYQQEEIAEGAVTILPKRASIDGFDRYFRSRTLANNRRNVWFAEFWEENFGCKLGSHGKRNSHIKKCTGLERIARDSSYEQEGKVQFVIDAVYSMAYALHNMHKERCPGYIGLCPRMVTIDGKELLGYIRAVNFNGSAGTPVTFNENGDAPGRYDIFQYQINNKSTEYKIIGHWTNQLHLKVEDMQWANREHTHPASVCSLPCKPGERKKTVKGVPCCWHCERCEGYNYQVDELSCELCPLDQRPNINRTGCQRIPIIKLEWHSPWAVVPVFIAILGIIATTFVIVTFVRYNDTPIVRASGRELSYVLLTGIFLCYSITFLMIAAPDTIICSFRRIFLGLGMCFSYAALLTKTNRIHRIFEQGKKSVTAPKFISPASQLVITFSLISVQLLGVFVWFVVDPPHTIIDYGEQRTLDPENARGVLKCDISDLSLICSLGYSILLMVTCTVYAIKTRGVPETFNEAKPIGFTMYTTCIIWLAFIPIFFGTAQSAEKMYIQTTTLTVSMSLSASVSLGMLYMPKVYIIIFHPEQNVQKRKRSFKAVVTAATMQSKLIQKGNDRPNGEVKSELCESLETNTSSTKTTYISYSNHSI

| Compound | z-score |
| --- | --- |
| CCCn1c(N)c(Sc2ccc(Cl)cc2)c(=O)n(CCC)c1=O | 1.12 |
| CCCCCn1c(=O)[nH]c2cc(C(=O)N3CCN(CC)CC3)ccc2c1=O | 0.0715 |
| COC(=O)/C(=C/c1ccco1)NC(=O)c1ccccc1 | -0.194 |
| O=C(CSc1nc2ccccc2s1)Nc1cc(S(=O)(=O)N2CCOCC2)ccc1Cl | -0.715 |
| CCN1CCCC1CNCc1cccc(OC)c1OCc1ccccc1F (stereo unspecified) | -0.177 |
| COc1ccc(N=c2oc3c(OC)cccc3cc2C(=O)NCc2ccco2)c(OC)c1 | -1.34 |
| O=C(NCCCN1CCC(Cc2ccccc2)CC1)C1CCN(S(=O)(=O)N2CCOCC2)CC1 | 0.369 |
| CC(C)CCNC(=O)NC(=O)COc1ccccc1C#N | -0.198 |
| Cc1ccc(S(=O)(=O)N(C)CCCC(=O)NCc2ccc3c(c2)OCO3)cc1 | -0.289 |
| CC1=CC2=NC(=O)/C(=C\c3cc(C)n(-c4ccccc4F)c3C)C(=N)N2O1 | 0.13 |
| Cc1nn2c(-c3ccc(Cl)cc3)ccnc2c1-c1ccccc1 | -0.0976 |
| CCc1ccc(/C=C\C(=O)N2CCc3ccccc3C2)cc1 | -0.105 |
| Cn1nnnc1SCC(=O)NCc1ccccc1 | 0.57 |
| Cc1ccccc1C(=O)Nc1ccc(Br)c(C)n1 | -0.245 |
| COc1ccccc1CNC(=O)c1cn(C)c(=O)c2cc(OC)c(OC)cc12 | 0.415 |
| Cc1ccc(C(=O)N/C(=C/C=C\c2ccccc2)C(=O)NCc2ccco2)cc1 | -0.216 |

| Compound | z-score |
| --- | --- |
| Oc1oc(-c2ccccc2)nc1C=Nc1cccc2ccccc12 | -0.00127 |
| CCCCCn1c(=O)[nH]c2cc(C(=O)NCCN(CC)CC)ccc2c1=O | 0.754 |
| COc1ccc(SCc2noc(C(=O)NC(C)C)c2C(=O)O)cc1 | -0.0789 |
| CCOC(=O)C1CCN(C(=O)CCc2ccccc2)CC1 | 0.606 |
| COC(=O)c1ccc(C2CC(=O)Nc3cc(OC)c(OC)c(OC)c32)cc1 (stereo unspecified) | 0.259 |
| C=CCn1c(-c2cccs2)nc2nc3ccccc3nc21 | -0.179 |
| CN1/C(=C\C(=O)C(F)F)C(C)(C)c2ccccc21 | -0.183 |
| CC(=O)N1CCc2cc(Br)cc(S(=O)(=O)N3CCN(c4ccccn4)CC3)c21 | 0.487 |
| CCCC(=O)Nc1c(C)nn(C(=O)CCC)c1C | 1.38 |
| O=C(CNC(=O)c1ccco1)N/N=C/c1ccc(O)c([N+](=O)[O-])c1 | -0.284 |
| CC(=O)Nc1cccc(C(=O)OC(C(=O)c2ccc(C)cc2)c2ccccc2)c1 (stereo unspecified) | 0.508 |
| O=C(CSc1nc2cc(Cl)ccc2o1)NCCc1ccccc1 | -0.346 |
| CCOC(=O)N1CCN(c2cc(=O)n(C3CCCCC3)c(=O)[nH]2)CC1 | 0.0254 |
| Cc1cc(C)n2nc(SCC(=O)N/N=C/c3ccccc3F)nc2n1 | 0.0121 |
| O=C(CSc1ccc(Cl)cc1)Nc1cccc(-c2nnc(-c3ccco3)o2)c1 | -0.176 |
